Source: the antibiotic and cytotoxicity screens of Wong et al. (2023)
Some of the results follow.

test system: HepG2; experiment: cytotoxicity call (relative viability < 0.9); settings: 10 µM

Structure (SMILES)	cytotoxicity call
C[C@H]1CN([C@@H](C)CO)C(=O)c2cc(Br)cnc2O[C@H]1CN(C)S(=O)(=O)c1cccs1	inactive
NCc1cccc(-n2cccn2)c1	inactive
C[C@H](CO)N1C[C@H](C)[C@H](CN(C)S(=O)(=O)c2cccs2)Oc2ncc(Br)cc2C1=O	inactive
CO[C@@H]1CN(C)C(=O)c2cc(NS(=O)(=O)CC(F)(F)F)ccc2OC[C@@H](C)N(Cc2nccs2)C[C@@H]1C	inactive
O=C(NC[C@H]1CCCO1)c1ccc[nH]1	inactive
C[C@@H]1CN([C@@H](C)CO)C(=O)c2cc(NC(=O)C3CC3)ccc2O[C@@H]1CN(C)S(=O)(=O)c1ccccc1	inactive
COC1(NC(=O)CSCC#N)C(=O)N2C(C(=O)[O-])=C(CSc3nnnn3C)CSC21.[Na+] (stereo not given)	inactive
COc1cccc(S(=O)(=O)N(C)C[C@@H]2Oc3ncc(C#CC(C)C)cc3C(=O)N([C@H](C)CO)C[C@H]2C)c1	inactive
c1ccc(-c2cc(-c3ccccc3)n(-c3ccccc3)n2)cc1	inactive
C[C@H](CO)N1C[C@H](C)[C@H](CN(C)Cc2ccccn2)Oc2ncc(C#Cc3ccc(F)cc3)cc2C1=O	inactive
C[C@@H]1CN([C@H](C)CO)C(=O)c2cc(NC(=O)C3CCCCC3)ccc2O[C@H]1CN(C)Cc1ccc(Oc2ccccc2)cc1	inactive
O=C(O)c1n[nH]c2c1C[C@H]1C[C@@H]21	inactive
CNC[C@@H]1OCCCC[C@H](C)Oc2ccc(NC(=O)Nc3cccc4ccccc34)cc2C(=O)N([C@H](C)CO)C[C@@H]1C	inactive
C[C@H](CO)N1C[C@H](C)[C@@H](CN(C)C(=O)Nc2cccc3ccccc23)Oc2ccc(NC(=O)CCC(F)(F)F)cc2CC1=O	inactive
C[C@@H]1O[C@@H](O[C@H]2[C@H](OC(=O)[C@]34CCC(C)(C)C[C@H]3C3=CC[C@H]5[C@@]6(C)CC[C@H](O[C@@H]7O[C@H](CO)[C@@H](O)[C@H](O)[C@H]7O)C(C)(C)[C@@H]6CC[C@@]5(C)[C@]3(C)C[C@H]4O)OC[C@H](O)[C@@H]2O)[C@H](O)[C@H](O[C@@H]2OC[C@H](O)[C@H](O)[C@H]2O)[C@H]1O[C@@H]1OC[C@@H](O)[C@H](O[C@@H]2OC[C@H](O)[C@H](O)[C@H]2O)[C@H]1O	active
COc1ccc(CN(C)C[C@@H]2Oc3c(NC(=O)c4ccc(-c5nccs5)cc4)cccc3C(=O)N([C@@H](C)CO)C[C@H]2C)cc1	active
Cc1noc(C)c1S(=O)(=O)N(C)C[C@@H]1Oc2ccc(NC(=O)CCC(F)(F)F)cc2CC(=O)N([C@@H](C)CO)C[C@H]1C	inactive
C[C@@H]1CN([C@H](C)CO)C(=O)c2cc(NS(=O)(=O)c3ccc(Cl)cc3)ccc2O[C@@H](C)CCCCO[C@@H]1CN(C)CC1CCCCC1	active
C[C@H]1CCCCO[C@@H](CN(C)Cc2ccncc2)[C@@H](C)CN([C@@H](C)CO)C(=O)c2cc(NC(=O)Nc3ccc(C(F)(F)F)cc3)ccc2O1	inactive
O=C(CN1CCOCC1)N[C@@H]1CC[C@H](CCn2cc(C3CC3)nn2)O[C@H]1CO	inactive

Structure (SMILES)	cytotoxicity call
C[C@@H]1CN([C@H](C)CO)C(=O)c2cccc(NC(=O)Nc3ccc(F)cc3)c2O[C@@H]1CN(C)Cc1ccc(-c2ccccc2)cc1	inactive
CCCNC(=O)N1C[C@]2(CN(C2)S(=O)(=O)c2ccc(cc2)OC)c2c(n(c3cc(ccc23)OC)C)[C@H]1CO	inactive
Cc1noc(C)c1NC(=O)Nc1ccc2c(c1)C(=O)N([C@@H](C)CO)C[C@H](C)[C@@H](CN(C)S(=O)(=O)c1ccccc1)O2	inactive
Cc1noc(C)c1NC(=O)N(C)C[C@H]1Oc2ccc(NC(=O)CCN3CCOCC3)cc2CC(=O)N([C@H](C)CO)C[C@H]1C	inactive
C[C@H](CO)N1C[C@H](C)[C@H](CN(C)Cc2ccc3c(c2)OCO3)OCCCC[C@H](C)Oc2ccc(NS(=O)(=O)c3ccc(F)cc3)cc2C1=O	inactive
C=C[C@H](CO[Si](CC)(CC)CC)N(Cc1ccc(OC(C)=O)c(OC)c1)S(=O)(=O)c1ccc(Br)cc1	inactive
C[C@@H]1CCCCO[C@@H](CN(C)Cc2ccc(C(F)(F)F)cc2)[C@@H](C)CN([C@@H](C)CO)C(=O)c2cc(NC(=O)Nc3cccc4ccccc34)ccc2O1	inactive
COc1ccc(CN(C)C[C@@H]2Oc3c(NC(=O)Nc4cccc5ccccc45)cccc3C(=O)N([C@H](C)CO)C[C@@H]2C)cc1	inactive
O=C(C[C@@H]1CC[C@H](NC(=O)C2CC2)[C@@H](CO)O1)NCCCN1CCOCC1	inactive
CCCNC(=O)N(C)C[C@H]1Oc2ncc(-c3ccc(C(=O)N(C)C)cc3)cc2C(=O)N([C@@H](C)CO)C[C@H]1C	inactive
COc1ccc(S(=O)(=O)N(C)C[C@H]2OCCCC[C@H](C)Oc3ccc(NC(=O)Nc4ccccc4)cc3C(=O)N([C@@H](C)CO)C[C@H]2C)cc1	inactive
CO[C@@H](CN(C)S(=O)(=O)c1ccc(Cl)cc1)[C@H](C)CN([C@H](C)CO)S(=O)(=O)c1cccc(Cl)c1	inactive
C[C@H](CO)N1C[C@H](C)[C@@H](CN(C)Cc2ccccc2)Oc2ccc(NC(=O)CCCCCC(=O)Nc3ccccc3N)cc2C1=O	inactive
O=C(NCC1CC1)[C@H]1[C@H](CO)[C@H]2Cn3c(cccc3=O)[C@@H]1N2C(=O)c1cccnc1	inactive
NC(=O)c1cc(N)ccc1F	inactive
CCS(=O)(=O)Nc1ccc2c(c1)C(=O)N(C)C[C@H](OC)[C@@H](C)CN(Cc1ccccn1)[C@@H](C)CO2	inactive
C[C@@H]1CN([C@@H](C)CO)C(=O)c2cccc(NC(=O)c3nc4ccccc4s3)c2O[C@@H]1CN(C)S(C)(=O)=O	inactive
C[C@@H]1CCCCO[C@H](CN(C)Cc2ccccc2)[C@H](C)CN([C@@H](C)CO)C(=O)c2cc(NC(=O)Cc3ccccc3)ccc2O1	inactive
Cc1noc(C)c1NC(=O)Nc1cccc2c1O[C@H](CN(C)C(=O)NC(C)C)[C@@H](C)CN([C@H](C)CO)C2=O	inactive
C[C@H](NC(=O)N(C)C[C@H]1OCc2ccccc2-c2c(n(C)c3ccccc23)C(=O)N([C@@H](C)CO)C[C@H]1C)c1ccccc1	inactive
